Measurements: PubChem BioAssay AID1508623 (National Center for Advancing Translational Sciences (NCATS), 2021)
In all, about 48,000 compounds went through this assay and about 450 (0.94%) were called active. Roughly 19% stayed inconclusive and do not appear here. The call rests on the fitted dose curve; in most records, active means well fitted inhibition curve with a large enough effect; inconclusive means small, poorly fitted or top-dose-only effect; inactive means no such curve, though single readings can be large or run the other way. The list shows a part of the results.

assay: Primary qHTS for Identification of Small Molecule Inhibitors of Huntingtin Promoter Activity; conditions: HEK293 HTT promoter firefly luciferase reporter (activity 0% = vehicle and -100% = no light), 24 h; series mostly up to 57.5 µM; activity change, negative = inhibition: at the top concentration; further: nearly all actives have a fitted effect of over 50% in size
How it was run: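 Firefly luciferase signal from promoter-reporter HEK293 cells was scaled between vehicle (0%) and zero RLU (-100%). Compounds were tested at final concentrations of up to 57.5 uM over 24 h at 37 degrees C. PTC124 at 50 uM final served as control inhibitor.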

Activity change, negative = inhibition, inactive:
O=C(Cn1c(=O)n(Cc2ccc(Cl)cc2)c(=O)c2cccnc21)Nc1ccccc1C(F)(F)F -5.11%, Cc1ccc(NC(=O)CNC(=O)Cn2c(C)cc3ccccc3c2=O)cc1F -5.74%, COCCNC(=O)c1c(-c2ccccc2)c(-c2ccccc2)nn(C)c1=O -5.18%, CCOC(=O)c1c(C)c(-c2ccccc2)n(CC(=O)NCc2cccc(OC)c2)c1C -4.68%, Cc1ccc([N+](=O)[O-])cc1S(=O)(=O)N1CCn2cccc2C1c1ccccc1F (stereo not drawn) -3.18%, Cn1c(=O)oc2cc(S(=O)(=O)N3CCC(C(=O)NCc4ccccc4)CC3)ccc21 -14.4%, CC(=O)c1ccc(NC(=O)Cn2cnc3nc4c(cc3c2=O)CC(C)CC4)cc1 (stereo not drawn) 7.58%, CCOc1ccccc1C(=O)Nc1ccc(S(=O)(=O)Nc2onc(C)c2C)cc1 -8.46%, CCC(Sc1nnc(C)n2c1cc1sccc12)C(=O)Nc1ccccc1F (stereo not drawn) -0.549%, CCc1cc(C(N)=S)ccn1, Cc1cccc(-c2nc3scc(CCNS(=O)(=O)c4c(C)noc4C)n3n2)c1 -14.2%, CCCCC(=O)Oc1ccc2oc(-c3ccc(OC)cc3)cc(=O)c2c1 89%, CCOc1cc(CNC(=O)c2ccc(Cn3c(=O)c4cccn4c4cccnc43)cc2)ccc1OC -5.49%, Cc1ccc(NC(=O)CSc2nc3ccc(NC(=O)c4cccs4)cc3s2)cc1 -1.55%, Cc1ccc(CNC(=O)N2CCC(CN3CCC(C)CC3)CC2)cc1 -11.4%, CCN1CCN(Cc2nc3cc(NC(=O)c4cc(OC)c(OC)c(OC)c4)ccc3n2CC)CC1 2.48%, COc1ccc(S(=O)(=O)c2cn(CC(=O)Nc3cc(C)ccc3C)c3ccccc3c2=O)cc1 -19.7%, COc1ccc(S(=O)(=O)n2nc(-c3ccco3)nc2NCc2ccc(N(C)C)cc2)cc1 -25.8%, COc1ccc(NC(=O)Cn2cnc3sc(C)c(S(=O)(=O)N4CCN(c5ccccc5OC)CC4)c3c2=O)cc1OC -5.45%, CCC1CN(C(=O)NCc2ccc(C)cc2)c2cc(Cl)ccc2O1 (stereo not drawn) -25.1%, CCc1ccccc1NC(c1nnc(-c2cccc(F)c2)o1)c1ccc(F)cc1Cl (stereo not drawn) -24.2%, CC(C)c1ccc(NC(=O)CN2C(=O)COc3ccc(S(=O)(=O)N4CCCCC4)cc32)cc1 -27.6%, Cc1ccc2scc(N3CCc4ccccc4C3)c(=O)c2c1 25.8%, Cc1ccc(C)c(N2CCN(C(=O)Cn3ncc4c(=O)oc5ccccc5c43)CC2)c1 4.62%, COc1cc(OC)cc(-c2nc3nc(C)c(CCC(=O)Nc4ccc(C)c(C)c4)c(C)n3n2)c1 -0.558%, Cn1c(=O)c2c(-c3cccc(Br)c3)n(C(C)(C)CO)cc2n(C)c1=O -15.1%, Cc1cccc(C(=O)NCC(=O)OCc2cc(=O)n3nc(CC(C)C)sc3n2)c1 -13.1%, COc1cccc(C(=O)N2CCN(CCc3ccncc3)CC2)c1 -16.8%, O=C1N(Cc2ccccc2)c2ccc(Cl)cc2C1(O)c1c[nH]c2ccccc12 (stereo not drawn) -9.3%, COc1ccccc1NC(=O)Cn1c(SCC(=O)N(C)c2ccccc2)nc2ccccc21 -23.4%, Cc1cc2nc(-c3ccc(OCc4ccccc4Cl)cc3)cc(C(F)(F)F)n2n1 0.6%, Fc1ccc(Nc2ncnc3onc(-c4cccc(Cl)c4)c23)c(F)c1 7.53%, COc1cccc2c1cc1c(=O)n(CC(=O)N3CCN(c4ccc(Cl)cc4)CC3)nc(C)n12 -2.96%, Cc1ccc(S(=O)(=O)NC2(C(F)(F)F)NC(=O)N(CCc3ccccc3)C2=O)cc1 (stereo not drawn) -10.9%, CCOc1ccccc1NC(=O)CSc1nnc2[nH]c(=O)cc(-c3ccccc3)n12 -4.27%, O=C(Nc1ccccc1Cl)C1CCN(c2nc3ccccc3nc2C(F)(F)F)CC1 -27.5%, CCOC(=O)c1cc2c(=O)n3ccccc3nc2n(C(C)C)c1=NC(=O)c1cc2ccccc2o1 -9.25%, COc1ccc(CNC(=O)CN2C(=O)COc3ccc(S(=O)(=O)Nc4ccccc4)cc32)cc1 -16.7%, COc1ccc(-n2nc(C(=O)N3CCCC(C)C3)c3c4ccccc4n(C)c3c2=O)cc1 (stereo not drawn) -18.5%, O=C(c1ccccc1)n1nc(-c2ccccc2)nc1NCc1ccc(F)cc1 -8.25%, CCc1ccc(C(=O)c2cn(CC(=O)NC3CCCCC3)c3nc(C)ccc3c2=O)cc1 -5.78%, CNC(=O)c1c(NC(=O)c2ccc(S(=O)(=O)N3CCCCC3)cc2)sc2c1CCC2 -5.86%, COc1ccc(-n2ccnc(NCc3ccccc3OC)c2=O)cc1 -25.6%, CCOc1ccc(N2CC(NC(=O)/C=C\c3ccc4c(c3)OCO4)CC2=O)cc1 (stereo not drawn) -9.76%, O=S(=O)(Nc1cc(F)ccc1F)c1ccc2[nH]c3c(c2c1)CCCC3 -4.45%, CSc1nc2c(c(=O)[nH]1)C(c1cccc(F)c1F)CC(=O)N2 (stereo not drawn) -17.7%, CC(C)(C)C(=O)Nc1ccc2nc(SCC(=O)N3CCOCC3)sc2c1 0.415%, CC(C)c1ccc(NC(=O)CS(=O)(=O)c2cccc3nsnc23)cc1 -7.31%
